Among all 310,000 compounds or so, about 14,000 (4.5%) showed an effect of 50% or more. The effect is printed as a negative number. Some of the results follow.
Target: human ether-à-go-go-related gene (hERG) potassium channel (human, UniProt Q12809)
Experiment: primary screen, population patch clamp on CHO cells stably expressing hERG
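Note: peak tail current of the secondary pulse compared with the same well before compound.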

Sequence of human ether-à-go-go-related gene (hERG) potassium channel (Q12809 whole entry, looked up): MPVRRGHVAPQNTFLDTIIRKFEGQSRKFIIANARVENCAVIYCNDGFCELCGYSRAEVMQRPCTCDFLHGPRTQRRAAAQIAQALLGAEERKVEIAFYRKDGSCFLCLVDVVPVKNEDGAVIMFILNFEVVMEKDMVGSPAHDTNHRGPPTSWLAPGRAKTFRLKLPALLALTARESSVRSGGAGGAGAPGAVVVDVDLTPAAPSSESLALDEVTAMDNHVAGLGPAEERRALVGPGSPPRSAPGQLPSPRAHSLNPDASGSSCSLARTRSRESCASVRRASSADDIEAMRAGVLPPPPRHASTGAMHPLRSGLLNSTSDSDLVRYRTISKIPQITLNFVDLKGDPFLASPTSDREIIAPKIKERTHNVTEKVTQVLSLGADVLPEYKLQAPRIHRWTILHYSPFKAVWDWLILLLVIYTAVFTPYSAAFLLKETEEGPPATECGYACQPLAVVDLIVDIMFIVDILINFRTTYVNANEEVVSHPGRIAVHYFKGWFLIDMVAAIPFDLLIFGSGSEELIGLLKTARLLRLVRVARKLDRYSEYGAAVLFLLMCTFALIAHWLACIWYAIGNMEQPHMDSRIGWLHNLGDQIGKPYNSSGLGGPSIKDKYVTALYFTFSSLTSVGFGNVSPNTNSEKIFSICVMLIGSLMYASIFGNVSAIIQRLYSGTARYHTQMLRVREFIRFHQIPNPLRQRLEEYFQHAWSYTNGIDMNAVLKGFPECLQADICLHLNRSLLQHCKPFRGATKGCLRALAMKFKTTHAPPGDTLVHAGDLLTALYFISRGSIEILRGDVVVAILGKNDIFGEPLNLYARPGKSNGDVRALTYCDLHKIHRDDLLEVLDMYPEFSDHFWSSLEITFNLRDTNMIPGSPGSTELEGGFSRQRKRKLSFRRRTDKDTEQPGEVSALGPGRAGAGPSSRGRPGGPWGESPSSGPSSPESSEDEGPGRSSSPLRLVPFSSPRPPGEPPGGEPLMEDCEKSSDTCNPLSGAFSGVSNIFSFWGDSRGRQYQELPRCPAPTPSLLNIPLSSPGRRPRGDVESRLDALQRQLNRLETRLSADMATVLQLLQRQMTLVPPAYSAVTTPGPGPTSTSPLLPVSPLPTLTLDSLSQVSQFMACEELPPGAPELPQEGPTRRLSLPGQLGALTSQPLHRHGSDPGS

Row | SMILES | hERG current change (%, negative = inhibition) at 10uM [%]
1 | CC(=O)Nc1ccc(NC(=O)/C=C/c2ccc(Cl)cc2)cc1 | 7.21
2 | Cc1ccc(-n2c(O)c(C=NCCCn3ccnc3)c(=O)[nH]c2=O)cc1 | 19.6
3 | Cc1ccsc1C(=O)OC1CCOC1=O (stereo not shown) | 10.9
4 | Cc1nc(NC(=O)c2cc3ccccc3o2)ccc1Br | 7.03
5 | COc1ccc(/C=N/NC(=O)c2cccnc2)cc1Cn1nc([N+](=O)[O-])c(Br)c1C | -12.9
6 | CCOC(=O)Cc1[nH]nc2c1C(Cc1ccccc1)C(C#N)=C(N)O2 (stereo not shown) | -0.308
7 | COc1cccc(C(C(=O)NC(C)(C)C)N(CCC(C)C)C(=O)CCC(=O)Nc2cc(C)on2)c1OC (stereo not shown) | -13.3
8 | CCOC(=O)c1ccc(Nc2cc(C)nc(-c3ccccc3)n2)cc1 | 5.74
9 | COc1cc(C(=O)Nc2ccc(C)cn2)ccc1OCC(=O)N1CCOCC1 | -25.4
10 | Cc1ccc(S(=O)(=O)CCC(=O)NCc2ccccc2Cl)cc1 | -0.876
11 | Cc1ccc(CC(=O)Nc2cccnc2)cc1 | 5.87
12 | CCN(CC)S(=O)(=O)c1ccc(NC(=O)c2nc3nc(C)cc(C)n3n2)cc1 | -1.21
13 | Cc1ccc2nc(NC(=O)C3=NN(c4ccccc4)C(=O)CC3)sc2c1 | 4.71
14 | CCN(CC)c1ccc(S(=O)(=O)N2CCCCC2)cc1NC(=O)CN1C(=O)NC2(CCCC2)C1=O | -16.7
15 | CCCCc1nc2ccccc2c(=O)n1-c1ccc(O)cc1 | 1.86
16 | COc1cc(Cl)ccc1OCc1cc(C(=O)N2CCN(C)CC2)no1 | 0.0146
17 | Cc1cccc(C)c1NC(=S)N(CCN(C)C)C(C)c1ccccn1 (stereo not shown) | -4.36
18 | Cc1ccc(C)c(OCC(=O)NNC(=O)CSC(=S)N2CCCC2)c1 | 6.05
19 | CC#CCN1c2ccccc2[C@]23C[C@@H](C(=O)OC)N(C(=O)NC4CCCCC4)C2=NC(C(=O)OC)=C(C(=O)OC)[C@H]13 | 6.01
20 | CCCOc1ccc(-c2nc(C#N)c(N3CCC(C(N)=O)CC3)o2)cc1 | -4.61
21 | COc1ccc(Br)cc1C(=O)Nc1ccc(N2CCN(S(C)(=O)=O)CC2)cc1 | 15.2
22 | Cc1ccnc(NC(=O)CNC(=O)COc2ccccc2)c1 | 1.18
23 | CCOc1ccc(C(=O)NCC(c2cccs2)N(C)C)cc1 (stereo not shown) | -41.8

Row | SMILES | hERG current change (%, negative = inhibition) at 10uM [%]
24 | Cc1cc(NC(=O)Cn2ccc([N+](=O)[O-])n2)no1 | 15.4
25 | CCCc1nnc(NC(=O)Cn2c(=O)sc3ccccc32)s1 | 6.86
26 | Cn1cc(Br)c(C(=O)N/N=C/c2cc3ccccc3nc2Cl)n1 | 2.43
27 | O=C(CSc1ncccn1)NCc1cccc(Cl)c1 | 17.2
28 | CCCSc1nnc2nc3c(nn12)c1ccccc1n3C | -49.7
29 | COc1cc(-c2noc(C)c2C#Cc2ccccn2)cc(OC)c1OC | -29
30 | O=C(COC(=O)CCc1c[nH]c(=O)[nH]1)Nc1ccccc1Cl | -4.16
31 | CCC1SC(CC)C(=O)N(CC(=O)Nc2ccc3c(c2)OCO3)C1=O (stereo not shown) | -0.361
32 | CC(C)NC(=O)CCCN1C(=O)c2ccccc2Sc2ncccc21 | 26.1
33 | Cl.O=C(CCN1CCC(c2ccccc2)C1)c1ccc2c(c1)OCCO2 (stereo not shown) | -56
34 | O=C(CSc1ncnc2nc[nH]c12)N1CCN(c2ccc(Cl)cc2)CC1 | -32.8
35 | CCCCn1c(N)c(N(CC(C)C)C(=O)c2ccc(F)c(S(=O)(=O)N3CCOCC3)c2)c(=O)[nH]c1=O | -7.46
36 | CC(O)CNCc1ccc(Cl)cc1Cl.Cl (stereo not shown) | 12.3
37 | O=C(Nc1ccncc1)c1cncc(Br)c1 | 6.81
38 | O=C(/C=C/c1ccccc1)N/C(=C/c1ccccc1)C(=O)N1CCOCC1 | -58.8
39 | Cc1[nH]c2ccc(F)cc2c(=O)c1SC(F)(F)C(F)C(F)(F)F (stereo not shown) | -1.2
40 | S=C(c1ccc(-c2ccccc2)o1)N1CCCCC1 | 11.5
41 | CCn1ncc(Br)c1C(=O)Nc1cc(C)cc(C)c1 | 2.89
42 | Cn1c(N)c(C(=O)NCc2ccccc2Cl)sc1=S | 18
43 | O=C1CC(NCc2ccncc2)C(=O)N1c1ccc(Cl)cc1 (stereo not shown) | 1.27
44 | CCOC(=O)N1CCN(CC(=O)Nc2ccc(C)c(Br)c2)CC1.Cl | -16.1
45 | COc1ccc2cc(-c3ccccc3F)ncc2c1 | 3.84
46 | COc1ccc(C(=O)N2CCC(C(=O)Nc3ccc(C)cc3)CC2)cc1 | -75.9

Row | SMILES | hERG current change (%, negative = inhibition) at 10uM [%]
47 | O=C1CCC(C(=O)O)N1 (stereo not shown) | 7.34
48 | O=C(CCC1CCCN(Cc2cccc3c2OCO3)C1)NCc1ccc(F)c(F)c1 (stereo not shown) | -74.4
49 | CCOC(=O)CSc1cc(C(F)(F)F)nc(-c2ccccn2)n1 | -31.5
50 | Cc1c(Br)c([N+](=O)[O-])nn1CCCC(=O)Nc1c(C)n(C)n(-c2ccccc2)c1=O | 12
51 | CCOC(=O)CSc1cc(C)nc(N)n1 | -5.41
52 | COc1ccc(NC(=O)N2CCCC2C(=O)NC23CC4CC(CC(C4)C2)C3)cc1 (stereo not shown) | 12.7
53 | CN(C)S(=O)(=O)c1cccc(NC(=S)Nc2ccc(Cl)cc2Cl)c1 | -4.86
54 | Cc1ccc(C(=O)CSc2nnc(-c3cccs3)n2C)o1 | 5.76
55 | COCC(=O)OCC(=O)Nc1ccc(Cl)cc1[N+](=O)[O-] | 28
56 | O=C(NCCCc1ccc(F)cc1)C1CCC(=O)N(CC2CCCCC2)C1 (stereo not shown) | -33.5
57 | COC(=O)c1cc(NC(=O)c2cc3ccccc3o2)cc(C(=O)OC)c1 | 10.4
58 | C[C@H](NS(=O)(=O)c1ccccc1F)C(=O)OCC(=O)N1CCc2ccccc21 | -1.65
59 | Clc1nnc(N2CCCCC2)c2ccccc12 | 1.27
60 | OCC[C@@H]1C[C@@H](O)[C@H](O)[C@]2(CCc3ccccc3CO2)O1 | 21.6
61 | COc1cc(OC)c(-c2sc(Nc3ccccc3)n[n+]2-c2ccc(F)cc2)cc1OC.[Cl-] | -0.831
62 | CCOC(=O)C1CCN(CC(O)COCc2ccc3c(c2)OCO3)CC1.Cl (stereo not shown) | -46
63 | Cc1cc(NC(=O)Cc2cc(F)cc(F)c2)no1 | 23.8
64 | Cc1ccc2c(Cl)cc(Cl)c(OCC(=O)N3CCOCC3)c2n1 | -8.28
65 | CCN(c1cccc(C)c1)S(=O)(=O)c1cccc2nsnc12 | 10.6
66 | COc1ccc(S(=O)(=O)N2CCN3CCCC3C2)cc1 (stereo not shown) | 22.7
67 | O=C(N/C(=C\c1ccc(Br)cc1)C(=O)N1CCOCC1)c1ccc(Br)o1 | -67.1
68 | CC(C)(C)C(=O)NC(=S)NNC(=O)c1ccncc1 | 21.2
69 | CCOC(=O)c1cc(-c2ccccc2)nn1CCC#N | 12

Row | SMILES | hERG current change (%, negative = inhibition) at 10uM [%]
70 | CN(C)c1ccc(CNC(=O)CCNS(=O)(=O)c2cc(Br)cnc2N)cc1 | 12
71 | Cc1nc2ccsc2c(=O)n1-c1ccccc1Cl | 8.42
72 | CC(O)C(=O)N/N=C/c1cccc(Cl)c1Cl (stereo not shown) | 0.711
73 | Cc1cc(=O)oc(C)c1C(=O)Nc1ccc(N(C)C)cc1 | 9.17
74 | CCOC(=O)N1CCN(C(=O)Cc2c(C(=O)O)n(C)c3ccccc23)CC1 | 5.28
75 | CC(=O)c1cccc(NC(=O)Cn2cc3c(n2)CCCC3)c1 | 3.67
76 | c1cncc(-c2nc(-c3ccco3)cs2)c1 | -12.7
77 | O=S(=O)(Nc1cccc(S(=O)(=O)N2CCCC2)c1)c1cccc(Br)c1 | -15.2
78 | O=C(O)C(F)(F)F.O=C1C(Cc2ccccc2)Nc2ncnc(N3CCOCC3)c2N1Cc1ccc(Cl)cc1 (stereo not shown) | -18.1
79 | CCCOc1cccc(C(=O)N(Cc2ccco2)C2CCS(=O)(=O)C2)c1 (stereo not shown) | -2.12
80 | CCN1C(=NCC(C)C)N[C@@H](CCc2ccccc2)[C@H](C(=O)NCC(C)C)[C@H]1C | -16.2
81 | O=C1CNC(=O)/C(=C\c2ccc(F)cc2)N1 | 20.8
82 | CC(C)NC(=O)CN1CCN(Cc2nc(-c3cccs3)no2)CC1 | 19.9
83 | O=C(O)CN1C(=O)C2C3C=CC(C3)C2C1=O (stereo not shown) | -4.94
84 | Cn1c(=O)c2sccc2n2c(CCCC(=O)NC3CCN(Cc4ccccc4)CC3)nnc12 | 16.2
85 | COc1ccc(S(=O)(=O)N(CC(=O)N2CCN(c3ccccc3OC)CC2)c2ccccc2)cc1 | -36.5
86 | CCOc1cc(/C=N/NC(=O)c2ccncc2)ccc1OC(=O)c1ccccc1 | 13.7
87 | Cc1c(C(=O)O)sc2c1c(=O)n(Cc1ccccc1)c(=O)n2C | 23.2
88 | CC(=O)Oc1ccccc1/C=C/c1ccc2ccccc2[n+]1C.[I-] | 11.3
89 | CC(OC(=O)CCc1nc2ccccc2c(=O)[nH]1)C(=O)NCc1ccc2c(c1)OCO2 (stereo not shown) | 5.17
90 | CCOCC(O)CNc1ccccc1 (stereo not shown) | 9.24
91 | CN1C(=O)CC(C(=O)O)SC1=Nc1cc(Cl)c(O)c(Cl)c1 (stereo not shown) | 3.06
